Each block holds one binder with its values, some of them ahead of it.
Legend:
[1] = target: T1, recombinant extra-cellular domain of human Nectin-4 protein (human, UniProt Q96NY8 32-349); assay: BIAcore (SPR), antibody captured on chip, human Nectin-4 protein injected at 0.391-50 nM
T1 construct: extracellular domain; Bought protein; also called Human Nectin-4 protein (purchased from Novoprotein Scientific Inc.); the antigen
T1 sequence (looked up): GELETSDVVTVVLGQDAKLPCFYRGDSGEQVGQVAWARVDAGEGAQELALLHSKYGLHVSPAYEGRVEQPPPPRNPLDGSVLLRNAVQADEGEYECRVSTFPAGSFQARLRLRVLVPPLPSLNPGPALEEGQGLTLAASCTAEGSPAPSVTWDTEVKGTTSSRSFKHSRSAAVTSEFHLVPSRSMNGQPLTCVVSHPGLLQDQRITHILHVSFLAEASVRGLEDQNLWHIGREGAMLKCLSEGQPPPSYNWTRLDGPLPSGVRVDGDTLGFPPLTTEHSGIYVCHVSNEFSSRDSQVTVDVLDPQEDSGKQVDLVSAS

[2] = target: T1, recombinant extra-cellular domain of …; assay: BIAcore (SPR), ADC captured on chip, human Nectin-4 protein injected at 0.391-50 nM
[3] = target: T1, recombinant extra-cellular domain of …; assay: BIAcore (SPR), reference Padcev

Kd [1]: 2.58 nM | koff [1]: 0.00145 s⁻¹ | kon [1]: 562000 M⁻¹ s⁻¹
B1: hH2L1 (antibody, human IgG1, kappa)
heavy: EVQLQESGPGLVKPSETLSLTCTVSGFSLIDYGVSWIRQPPGKGLEWIGVIWGGGKIYYNSVLKSRVTISKDNSKSQVSLKLSSVTAADTAVYYCAKQGGLLFYAMDYWGQGTLVTVSSASTKGPSVFPLAPSSKSTSGGTAALGCLVKDYFPEPVTVSWNSGALTSGVHTFPAVLQSSGLYSLSSVVTVPSSSLGTQTYICNVNHKPSNTKVDKRV[gap - human IgG1 Fc]
light: DIVMTQSPDSLAVSLGERATINCKSSQSLLNTYSQKNYLAWYQQKPGQPPKLLIYFASTRESGVPDRFSGSGSGTDFTLTISSLQAEDVAVYYCQQHYNTPFTFGGGTKVEIKRTVAAPSVFIFPPSDEQLKSGTASVVCLLNNFYPREAKVQWKVDNALQSGNSQESVTEQDSKDSTYSLSSTLTLSKADYEKHKVYACEVTHQGLSSPVTKSFNRGEC
notes: also called anti-Nectin-4 antibody hH2L1; naked antibody

Kd [2]: 2.41 nM | koff [2]: 0.00142 s⁻¹ | kon [2]: 589000 M⁻¹ s⁻¹ | fold affinity against Padcev [3]: ~2 fold
B2: antibody-drug conjugate 3d (hH2L1 conjugated with drug-containing linker C-3) (antibody, human IgG1, kappa)
heavy: B1 heavy
light: B1 light
modifications: drug-containing linker C-3 site-specifically conjugated to the reduced disulfide bonds of the antibody, DAR 4.0; the conjugated residues are not numbered; drug-containing linker C-3 site-specifically conjugated to the reduced disulfide bonds of the antibody, maleimide ring opened by hydrolysis (formula Ib), DAR 4.0; the conjugated residues are not numbered
notes: also called ADC 3d; the ADC of interest
